This passage reports cytotoxicity call and growth inhibition call results from the antibiotic and cytotoxicity screens of Wong et al. (2023).

The structures appear in SMILES notation. The list shows a part of the results.

Experiment [1] concerns HSkMC (human skeletal muscle cells). Kind of experiment: cytotoxicity call (relative viability < 0.9). To be noted: 10 µM.
Experiment [2] concerns S. aureus RN4220. Kind of experiment: growth inhibition call (relative growth <= 0.2). The settings on record: 50 µM.

As to `Cc1ccc(S[C@]2(C(=O)NCCCN(C)C)CC(=O)N(Cc3ccccc3Cl)[C@@H]2c2ccc(CO)cc2I)cc1`, the cytotoxicity call in experiment [1] was “inactive”. Further, the growth inhibition call in experiment [2] was “inactive”.

For `COc1ccc(CN(C)C[C@@H]2OCCCC[C@H](C)Oc3ccc(NC(=O)Nc4ccc5c(c4)OCO5)cc3C(=O)N([C@@H](C)CO)C[C@H]2C)cc1`, the cytotoxicity call in experiment [1] is “inactive”. In experiment [2], the growth inhibition call is “inactive”.

Take `C[C@@H]1CN([C@H](C)CO)C(=O)c2cccc(NC(=O)Nc3cccc4ccccc34)c2O[C@@H]1CN(C)S(=O)(=O)c1ccc(Cl)cc1`: the cytotoxicity call in experiment [1] was “active”. For the same compound, the growth inhibition call in experiment [2] is “inactive”.

As for `Cc1noc(C)c1NC(=O)Nc1ccc2c(c1)C(=O)N([C@H](C)CO)C[C@@H](C)[C@@H](CN(C)C(=O)Nc1ccccc1)OCCCC[C@@H](C)O2`, the cytotoxicity call in experiment [1] is “inactive”. Moreover, the growth inhibition call in experiment [2] is “inactive”.

Turning to `C=C/C=C/[C@@H]1C(=C)CN([C@@H](Cc2ccccc2)C(=O)OC)[C@H]1[C@@H](O)CCn1cc(-c2ccc(C(=O)NO)s2)nn1`, the cytotoxicity call in experiment [1] is “inactive”. In experiment [2], the growth inhibition call is “inactive”.

Take `C[C@H]1CCCCO[C@@H](CN(C)C(=O)Nc2ccc3c(c2)OCO3)[C@@H](C)CN([C@@H](C)CO)C(=O)c2cc(NC(=O)Nc3ccccc3)ccc2O1`: the cytotoxicity call in experiment [1] was “inactive”. In addition, the growth inhibition call in experiment [2] is “inactive”.

As to `COc1ccc(COC[C@@]23Oc4ccccc4[C@@H](NC(=O)N2C(=O)c2ccccc2)[C@H]3CO[Si](C)(C)C(C)(C)C)cc1`, the cytotoxicity call in experiment [1] was “inactive”. The growth inhibition call in experiment [2] was “inactive”.

On to `C[C@@H]1CCCCO[C@H](CN(C)C(=O)Nc2ccc(F)cc2)[C@H](C)CN([C@H](C)CO)C(=O)c2cc(NS(=O)(=O)c3ccccc3)ccc2O1`, for which, in experiment [1], the cytotoxicity call was “inactive”. Also, the growth inhibition call in experiment [2] was “inactive”.

For `CC(CCC(=O)NCC(=O)O)C1CCC2C3C(O)CC4CC(O)CCC4(C)C3CC(O)C12C` (configuration not stated), the cytotoxicity call in experiment [1] is “inactive”. For the same compound, the growth inhibition call in experiment [2] is “inactive”.

With `C[C@H](CO)N1C[C@H](C)[C@H](CN(C)C(=O)CCC(F)(F)F)OCCCC[C@H](C)Oc2ccc(NC(=O)CCC(F)(F)F)cc2C1=O`, the cytotoxicity call in experiment [1] was “inactive”. The growth inhibition call in experiment [2] was “inactive”.

Regarding `CN1CCN(C(=O)c2nn(C)c3c2CCN(S(C)(=O)=O)C3)CC1`, the cytotoxicity call in experiment [1] was “inactive”. In experiment [2], the growth inhibition call was “inactive”.

For the compound `C[C@H](CO)N1C[C@H](C)[C@@H](CN(C)C(=O)Nc2ccccc2)Oc2ccc(NC(=O)CCCCCC(=O)Nc3ccccc3N)cc2CC1=O`, the cytotoxicity call in experiment [1] is “inactive”. In addition, the growth inhibition call in experiment [2] was “inactive”.

On to `C[C@@H]1CN([C@@H](C)CO)C(=O)c2cc(NC(=O)CCN3CCOCC3)ccc2O[C@@H]1CN(C)Cc1ccncc1`, for which, in experiment [1], the cytotoxicity call is “inactive”. In experiment [2], the growth inhibition call was “inactive”.

In the case of `COCCCNC(=O)C[C@H]1SC(=N)NC1=O`, in experiment [1], the cytotoxicity call is “inactive”. Besides, the growth inhibition call in experiment [2] is “inactive”.

Take `C[C@@H]1CN([C@@H](C)CO)C(=O)c2cc(NS(=O)(=O)c3ccc(Cl)cc3)ccc2O[C@H]1CN(C)Cc1ccc(-c2ccccc2)cc1`: the cytotoxicity call in experiment [1] was “active”. For the same compound, the growth inhibition call in experiment [2] is “inactive”.

For the compound `C[C@H]1CN([C@@H](C)CO)C(=O)c2cc(-c3cccc(C(=O)N(C)C)c3)cnc2O[C@H]1CN(C)C(=O)Cc1ccccn1`, in experiment [1], the cytotoxicity call was “inactive”. In experiment [2], the growth inhibition call was “inactive”.

As for `COCC(=O)N1CC(=O)N2[C@H](C1)[C@@H](c1ccc(C#Cc3cccnc3)cc1)[C@@H]2CO`, in experiment [1], the cytotoxicity call is “inactive”. For the same compound, in experiment [2], the growth inhibition call is “inactive”.

As for `CC(C)NC(=O)Nc1ccc2c(c1)C(=O)N([C@@H](C)CO)C[C@H](C)[C@@H](CN(C)C(=O)Nc1ccccc1)OCCCC[C@@H](C)O2`, the cytotoxicity call in experiment [1] is “inactive”. In experiment [2], the growth inhibition call is “inactive”.

Turning to `O=C(C[C@@H]1C[C@@H]2c3cc(NS(=O)(=O)c4ccc(F)cc4)ccc3O[C@@H]2[C@@H](CO)O1)NCc1ccc(Oc2ccccc2)cc1`, in experiment [1], the cytotoxicity call is “inactive”. Further, the growth inhibition call in experiment [2] was “inactive”.

As to `NC[C@@H](O)C1CCCCC1`, the cytotoxicity call in experiment [1] is “inactive”. Also, the growth inhibition call in experiment [2] was “inactive”.

For the compound `C[C@@H]1CCCCO[C@@H](CN(C)C(=O)Nc2ccccc2)[C@@H](C)CN([C@H](C)CO)C(=O)c2cc(NC(=O)Nc3cccc4ccccc34)ccc2O1`, the cytotoxicity call in experiment [1] is “inactive”. For the same compound, the growth inhibition call in experiment [2] was “inactive”.

On to `C[C@H]1O[C@@H](O[C@H]2CC[C@@]3(C)[C@@H](CC[C@@]4(C)[C@@H]3CC=C3[C@H]5C[C@](C)(C(=O)O)CC[C@]5(C(=O)O[C@H]5O[C@@H](CO)[C@@H](O)[C@@H](O)[C@@H]5O)CC[C@@]34C)[C@@]2(C)CO)[C@@H](O)[C@@H](O[C@H]2O[C@@H](CO)[C@@H](O)[C@@H](O)[C@@H]2O)[C@@H]1O`, for which the cytotoxicity call in experiment [1] is “inactive”. Also, the growth inhibition call in experiment [2] was “inactive”.

On to `O=C(C[C@H]1C[C@H]2c3cc(NC(=O)Cc4ccncc4)ccc3O[C@H]2[C@@H](CO)O1)NCc1cc(F)ccc1F`, for which, in experiment [1], the cytotoxicity call is “inactive”. The growth inhibition call in experiment [2] is “inactive”.

On to `CN1CCN(C(=O)C[C@@H]2CC[C@H]3[C@@H](COC[C@@H](O)CN3S(=O)(=O)c3cccc(Cl)c3)O2)CC1`, for which the cytotoxicity call in experiment [1] was “inactive”. Also, the growth inhibition call in experiment [2] was “inactive”.

Regarding `C[C@@H]1CCCCO[C@@H](CN(C)C(=O)Nc2cccc3ccccc23)[C@@H](C)CN([C@@H](C)CO)C(=O)c2cc(NC(=O)NC3CCCCC3)ccc2O1`, in experiment [1], the cytotoxicity call was “inactive”. For the same compound, the growth inhibition call in experiment [2] is “inactive”.

For the compound `C[C@@H]1CN([C@@H](C)CO)C(=O)c2c(c3ccccc3n2C)-c2ccccc2CO[C@@H]1CN(C)Cc1ccc2c(c1)OCCN2C`, the cytotoxicity call in experiment [1] was “inactive”. Moreover, the growth inhibition call in experiment [2] is “inactive”.
